Experimental data: PubChem BioAssay AID624296 (National Center for Advancing Translational Sciences (NCATS), 2012)
The campaign covered roughly 350,000 compounds. About 9,900 (2.8%) were called active. Inconclusive results, whose numbers are uncertain, are shown with a selection of clear calls. Calls follow the shape of the dose curve; as a rule, active = well fitted activation curve with a large enough effect; inconclusive = small, poorly fitted or top-dose-only effect; inactive = no such curve, though single readings can be large or run the other way. Potencies of inconclusive entries are left out as doubtful fits.

Experiment: A quantitative high throughput screen for small molecules that induce DNA re-replication in MCF 10a normal breast cells. Also: nearly all actives have a fitted effect of over 50% in size.
Settings: MCF 10A DNA re-replication, Hoechst nuclear intensity, 48 h; series mostly up to 46.1 µM
Potency is read from the fitted curve at half-maximal effect; tags tell the direction and shape of the fitted curve.

Compound | Potency
O=C(/C=C(/c1ccc(Cl)cc1)n1cncn1)c1ccccc1 | inconclusive [activator, partial curve, poor fit]
COC(CNC(=O)c1ccc(N2CCc3ccccc32)c([N+](=O)[O-])c1)OC | inconclusive [activator, single point]
CCOC(=O)C1=CN(CC)S(=O)(=O)NC1CC (centres undefined) | inconclusive [activator, full curve, poor fit]
CCOC(=O)c1c2ccccc2[n+]([O-])n1[C@@H](C)C(N)=O | inactive
Cc1nc(C)c(C(=O)N/N=C/c2c[nH]c3ccccc23)s1 | inconclusive [activator, partial curve, poor fit]
C/C(CC(=O)Nc1ccc(Cl)c(Cl)c1)=N\NC(=O)Cc1ccccc1 | inconclusive [activator, partial curve, poor fit]
CC1CCc2cc(F)ccc2N1S(=O)(=O)c1ccc(Cl)nc1 (centres undefined) | inconclusive [activator, partial curve, poor fit]
COc1ccc(C)cc1NC(=O)CSc1nc2ccccc2nc1N1CCCCC1 | inconclusive [activator, single point]
CCCCCCSc1cc(-c2nc3cc(C)ccn3c2NC2CCCCC2)ccc1OC | inconclusive [activator, full curve, poor fit]
CC(C)(C)OC(=O)NCCc1nnc(S(=O)(=O)Cc2ccc(Cl)cc2Cl)o1 | active: 7.31 µM
O=C1Nc2c(Br)cc(Br)cc2C1(O)N1CCOCC1 (centres undefined) | active: 8.2 µM
CCOc1nc(-c2ccccc2)ccc1-c1noc(COC)n1 | inactive
CCOC(=O)c1c(NC(=O)c2cc(-c3ccc(Cl)s3)nc3ccccc23)sc(C(N)=O)c1C | inconclusive [activator, single point]
CCC1Nc2ncnc(N3CCN(c4ccccc4)CC3)c2N(Cc2ccc(Br)cc2)C1=O (centres undefined) | inconclusive [activator, single point]
CCc1nc(SCC(=O)Nc2ccccc2OC)c2c(C)c(C)sc2n1 | active: 20.6 µM
Oc1ccc(N2CCN(CC(O)c3ccccc3)CC2)cc1 (centres undefined) | inactive
Cc1cc(NC(=O)C2CC2)ccc1NC(=O)c1cccs1 | inconclusive [activator, full curve, poor fit]
CCOC(=O)c1c(NC(=O)C2=C(C)NC(=S)NC2c2ccc(F)cc2F)sc(C)c1C (centres undefined) | inconclusive [activator, full curve, poor fit]
N#Cc1nc(N2CCCC2)nc(N2CCCC2)n1 | inconclusive [activator, single point]
CCN(CC)Cc1nc2c(c(=O)[nH]1)C1(CCCC1)Cc1ccccc1-2 | inconclusive [activator, partial curve, poor fit]
CN(NC(=O)Nc1ccc(Cl)cc1)c1c(Cl)c(Cl)nn1C | inconclusive [activator, single point]
COc1ccc2nc(C)cc(N3CCN(S(=O)(=O)c4ccccc4F)CC3)c2c1 | inactive

Compound | Potency
N#Cc1c(NC(=O)c2ccccc2)sc2c1CCCCC2 | inactive
CCN(CC)c1ccc(C(=O)OCC(=O)Nc2ccccc2-c2ccccc2)cc1 | inconclusive [activator, partial curve, poor fit]
O=c1[nH]c(N/N=C/c2ccccc2)nc2ccccc12 | inactive
COC(=O)\C(C(C)=O)=C(/C=C/C=C/C=C/N(C)C)N(C)C | inactive
COC1=CC(=O)C(O)=C(CCCCCCC/C=C/CCCCCCCC2=C(O)C(=O)C=C(OC)C2=O)C1=O | inconclusive [activator, full curve, poor fit]
Cc1cccc(NC(=O)c2ccc(COc3ccccc3[N+](=O)[O-])o2)n1 | inconclusive [activator, partial curve, poor fit]
O=C(NCCc1ccccn1)c1cc(-c2cccc3ccccc23)nc2ccccc12 | inactive
Cc1ccc(-n2c(Cc3cccn3C)nnc2SCC(=O)NCc2ccco2)cc1 | inconclusive [activator, partial curve, poor fit]
Cn1c(N=Nc2ccccc2)nc2ccccc21 | inconclusive [activator, partial curve, poor fit]
Nc1cccc2nsnc12 | inconclusive [activator, single point]
Clc1ccc(C(c2nnnn2C2CCCC2)N2CCSCC2)cc1 (centres undefined) | active: 20.6 µM
O=C1C=CCC(/C=C/c2ccccc2)O1 (centres undefined) | active: 14.6 µM
Cc1ccc(C(=O)N/N=C\c2cccc(OC(=O)c3cccc(F)c3)c2)cn1 | inconclusive [activator, single point]
CC1CN(c2nc3c(c(=O)n(Cc4ccc(Cl)c(Cl)c4)c(=O)n3C)n2C)CC(C)O1 (centres undefined) | inconclusive [activator, single point]
CCc1ccc(C(=O)c2cnc3ccc(OC)cc3c2N2CCN(CC)CC2)cc1 | inconclusive [activator, full curve, poor fit]
CC1CCCN(CCCOc2ccc(Br)cc2Cl)C1 (centres undefined) | inconclusive [activator, single point]
CC(C)n1c(=S)[nH]c2scc(-c3cccs3)c2c1=O | active: 6.51 µM
CC(C)CN1CCC(=O)N([C@H](COc2ccccc2)c2ccccc2)CC1 | inactive
COc1cc(/C=N/NC(=O)c2csc3c2CCCC3)ccc1OCCN1CCOCC1 | inconclusive [activator, single point]
O=C(CN1C(=O)/C(=C/c2cccc(Cl)c2)SC1=S)NC1C=CS(=O)(=O)C1 (centres undefined) | active: 14.6 µM
O=C(Nc1nc2ccccc2n1Cc1ccc(Cl)cc1)c1ccco1 | inconclusive [activator, single point]
OC(COCC(F)(F)C(F)(F)C(F)(F)C(F)F)Cn1c2ccccc2c2ccccc21 (centres undefined) | inconclusive [activator, single point]
